According to the supplement of paper PMC3334620:
Over roughly 33,000 sequences, “E-score (-0.5 to 0.5)” has its median near -0.053; the highest 2% begin near 0.37. Some of the results follow.

target: Hap1 (UniProt P0CE41); experiment: PBM E-score (8-mer binding enrichment) (E-score (-0.5 to 0.5)); higher = stronger / more preferred TF binding; most listed sequences are background and not binding sites; details: protein concentration: 200 nM; construct: GST-DNA-binding domain
Procedure, shortened: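 The E-score, a modified Wilcoxon-Mann-Whitney statistic, was computed by the Universal PBM Analysis Suite for every ungapped eight-base word pooled with its reverse complement. Scans behind it were normalised with masliner after bound GST-tagged yeast transcription factors were detected with fluorescent anti-GST. The proteins, at about 100-200 nM, had been applied to universal all-10-mer Agilent arrays made double-stranded by primer extension.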

Chain of UniProt P0CE41 (P0CE41 whole entry, the tested form may be a part): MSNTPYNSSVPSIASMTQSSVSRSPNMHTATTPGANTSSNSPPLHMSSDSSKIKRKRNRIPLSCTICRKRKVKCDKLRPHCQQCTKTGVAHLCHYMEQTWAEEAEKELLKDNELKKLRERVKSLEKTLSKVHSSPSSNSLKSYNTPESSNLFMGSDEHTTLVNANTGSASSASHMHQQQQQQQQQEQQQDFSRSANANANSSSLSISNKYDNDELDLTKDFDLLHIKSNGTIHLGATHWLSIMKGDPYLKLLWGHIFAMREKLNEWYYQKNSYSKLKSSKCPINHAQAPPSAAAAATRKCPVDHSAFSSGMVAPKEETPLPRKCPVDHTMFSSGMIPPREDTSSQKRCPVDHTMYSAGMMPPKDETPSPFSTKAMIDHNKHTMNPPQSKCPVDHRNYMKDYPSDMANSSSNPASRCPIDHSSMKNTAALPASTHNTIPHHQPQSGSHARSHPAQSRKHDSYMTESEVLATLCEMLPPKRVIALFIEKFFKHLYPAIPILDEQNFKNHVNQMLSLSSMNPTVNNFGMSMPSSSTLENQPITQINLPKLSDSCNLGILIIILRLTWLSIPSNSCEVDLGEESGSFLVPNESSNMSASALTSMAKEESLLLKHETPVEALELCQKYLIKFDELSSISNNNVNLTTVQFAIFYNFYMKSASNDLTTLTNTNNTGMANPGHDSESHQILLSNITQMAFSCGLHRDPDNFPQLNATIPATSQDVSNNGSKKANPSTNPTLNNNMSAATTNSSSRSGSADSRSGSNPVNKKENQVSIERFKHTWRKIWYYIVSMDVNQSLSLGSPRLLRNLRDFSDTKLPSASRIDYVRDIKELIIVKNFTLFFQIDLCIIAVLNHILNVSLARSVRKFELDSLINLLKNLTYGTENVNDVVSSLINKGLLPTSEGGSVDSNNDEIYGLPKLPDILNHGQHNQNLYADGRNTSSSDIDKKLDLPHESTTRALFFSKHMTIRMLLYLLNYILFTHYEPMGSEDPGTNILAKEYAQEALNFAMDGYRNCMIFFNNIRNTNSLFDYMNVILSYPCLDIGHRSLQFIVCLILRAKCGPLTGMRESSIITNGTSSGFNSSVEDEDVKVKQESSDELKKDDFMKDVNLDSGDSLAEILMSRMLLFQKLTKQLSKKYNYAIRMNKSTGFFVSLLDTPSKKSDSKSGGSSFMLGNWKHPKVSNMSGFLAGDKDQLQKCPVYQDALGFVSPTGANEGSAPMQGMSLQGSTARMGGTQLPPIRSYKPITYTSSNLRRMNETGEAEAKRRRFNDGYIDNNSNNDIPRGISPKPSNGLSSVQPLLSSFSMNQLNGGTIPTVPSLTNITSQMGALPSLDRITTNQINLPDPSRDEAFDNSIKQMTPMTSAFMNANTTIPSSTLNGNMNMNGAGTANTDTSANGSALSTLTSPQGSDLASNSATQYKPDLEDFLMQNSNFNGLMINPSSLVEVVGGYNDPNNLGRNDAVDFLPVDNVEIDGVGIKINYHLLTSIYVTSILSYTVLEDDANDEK

Sequence	PBM E-score
ATGAGGCC	-0.0558
AGGCTTCC	-0.101
CCCGTGAA	0.135
TTGGTAAA	-0.105
GAATCGCC	0.0852
CGGATGTA	0.427
AGGAGGCA	-0.0609
GTAGAAAA	-0.0902
TGATCTAA	-0.172
ATCAACGA	0.0514
CAGGACAC	-0.117
TATAATCA	0.0723
AACAACCG	0.21
AAATATAT	0.0607
TGCTGACA	-0.258
CAAGAATC	0.15
CGCAAAAA	0.0563
GCCAAGTA	-0.218
CGCTACTA	0.163
ACATTGCG	-0.0133
AACACCCA	-0.186
GCGCTGTA	-0.0992
GCACGAAA	-0.0143
ATTCGTGA	-0.232
ATAGAGAT	-0.194

Sequence	PBM E-score
GAGTGCCA	-0.165
GCAGCCGA	0.2
GACAATGA	-0.102
ATCATATC	0.0983
AAATGTAT	0.105
CAAGCCGA	0.24
GGTCTTCA	-0.16
AACATTAT	-0.0948
CAGATGTA	-0.198
AAGCACAG	-0.0954
AAAGCAAC	-0.00246
AACAGTCG	-0.043
GGGGATAA	0.343
CCCTTCGC	-0.074
ACTCCGGG	0.39
TCTAGCCA	-0.0919
ACAGTATG	-0.135
AGTCCACA	-0.0896
AGCGCCTC	-0.0565
CACTTCCA	-0.0539
CGGGTTCA	0.246
CATATAAC	0.00972
ACCCCACT	-0.103
AATTACGC	-0.159
CTGACGGC	0.0958

Sequence	PBM E-score
AGGCAAAA	-0.0573
ATCACAGA	-0.154
AGCCAGAT	0.00391
GGAACTAA	0.337
ACCGAGAG	0.299
AACGGACC	0.327
CCGAAGAG	0.308
GGGCGTGA	0.0442
GCCGCTTA	0.073
TATACAAA	-0.0771
GTCGACAA	-0.0854
AGCTGTCG	-0.0205
CCAATGAG	-0.0685
ACAAGTTC	-0.079
ACCCCCAT	-0.213
ATATGTCC	0.344
CTTCCTAA	-0.117
CCGCACTA	0.154
CGTGGGAG	-0.114
CCGAACCC	0.252
TAATCCAA	-0.151
CCCCAAAC	-0.165
ACTCGAAG	-0.0473
CCCTCTCA	-0.259
CCCGAGTA	0.31

Sequence	PBM E-score
ACTCTGTC	-0.124
GCCACGAA	-0.00673
ATACTTTC	0.101
GTCAGCAC	-0.0194
CTTGATAA	-0.119
CGCTCGCA	0.12
AAAACAGA	-0.119
ATCAGAGA	-0.255
CATTCTAA	-0.102
AATCACTC	-0.186
ACGCACCA	-0.161
TACTATCA	0.0619
ACCCGCGT	-0.0512
GTTTCGCA	-0.0942
CATATACC	-0.0427
GGGGCAGA	-0.0029
GAAGTGTC	0.0473
ACTGAGTG	-0.128
AGGTTTCA	0.0481
ACTAAGCA	-0.283
CCTGCTGC	-0.0734
AGAAGGAA	-0.103
ACGTGTTA	-0.175
AGCGTTAA	0.00624
AGATAGCA	-0.0252

Sequence	PBM E-score
CTAGGCGA	0.0215
GACTTTAC	0.032
ATTGTTCA	-0.228
ACGGGAAC	0.101
CGATAGTA	0.189
CTGTTTGC	-0.231
CTACATGA	-0.187
CGATTGAA	0.0963
AGGCCACG	-0.0133
TAGCGCGA	0.0659
AGCCGACT	0.205
TCTGGGCA	0.204
ACAAACAG	-0.0612
GATAAGAA	0.0637
TGAAGACA	-0.0595
CGCGCCGA	0.317
CCCGGCCA	0.291
CGAGCATC	0.0291
AGCCGTAC	-0.0618
AGAACGAA	-0.0956
ACGTCCAC	-0.149
GAACCAAA	-0.202
AGCATAAA	-0.0693
AGCAGTCG	0.0529
AAAGGTAT	0.09

Sequence	PBM E-score
AGCCACCC	-0.0366
ACCGAAAT	0.301
CAACTAAG	-0.0658
GCTGCGCC	-0.0725
TTACGTAA	-0.348
AGCCCTTC	-0.241
CAGCTGCA	-0.16
CAAGTCTC	-0.249
AGTAGGAC	-0.181
TGCCACCA	-0.269
ACGTTAAG	-0.0924
ACTGATAG	-0.267
ACCTAAGC	0.027
CGGATACC	0.218
AGATCAGA	-0.336
CGTTCTCC	0.14
GGTGCTCA	-0.0958
CGGACCGC	0.367
AATCTAGA	-0.214
AGAAGCAC	-0.174
ATCTAACG	0.153
AGTTGCGA	-0.192
ACCTGCAG	-0.294
AACTGTCA	-0.212
CATCTCGC	-0.0113

Sequence	PBM E-score
AGCTAGTC	-0.0872
CCCTCGAG	-0.215
CCTATGAG	-0.308
AAGACGTC	-0.2
AGATGACG	-0.244
AGAGCGAC	-0.11
AAAAACGC	0.0756
GAGTTGCC	0.0867
ACCCTTGA	-0.0126
ACAATGCG	-0.00454
ACAGTGTA	-0.209
TAAAGTGA	-0.11
ACGGTAAA	0.0275
ACTCCAAG	-0.152
AAGATAAT	-0.0331
CCGCGGTC	0.276
GCGGTCAA	0.138
GCCCTAGC	-0.178
CATATTTA	-0.0868
TCACGTCA	-0.186
TTTGCAAA	-0.283
GTCTAGCA	-0.0959
